From PMC5928365
These are yes or no findings as the source states them, for the method shown. For part of these data: In cells and extracts the contact can be indirect. Some entries that bind do so weakly or less than the wild type. For part of these data: Sequences can lack the tags named with a protein.

Protein sequences, listed by entry. Tags and fused reporters are not part of them.
UniProt P49674: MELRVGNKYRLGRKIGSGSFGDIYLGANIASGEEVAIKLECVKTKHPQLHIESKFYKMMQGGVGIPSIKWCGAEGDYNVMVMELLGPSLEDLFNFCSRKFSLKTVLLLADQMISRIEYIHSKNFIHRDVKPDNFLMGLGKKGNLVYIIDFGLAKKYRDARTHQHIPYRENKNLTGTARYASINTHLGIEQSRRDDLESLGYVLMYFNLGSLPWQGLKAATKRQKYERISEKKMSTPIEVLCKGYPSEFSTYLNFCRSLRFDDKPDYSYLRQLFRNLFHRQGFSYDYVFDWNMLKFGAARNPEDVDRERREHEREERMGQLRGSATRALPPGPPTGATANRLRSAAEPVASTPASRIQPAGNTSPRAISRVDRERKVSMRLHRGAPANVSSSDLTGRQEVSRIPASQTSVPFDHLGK

What was measured:
[1] = molecular target: T1, GST–cytoRor2 (cytoplasmic domain of Ror2, amino acids 426–944) (mouse (from the plasmid name pcDNA-mRor2-HA)) (UniProt Q9Z138); assay: pull-down; 10 pmol GST–cyto-Ror2 as bait with 700 μg total cell extracts from control, p120-catenin or CK1ε HEK293T CRISPR cells; Western blot; only the target purified
T1 sequence: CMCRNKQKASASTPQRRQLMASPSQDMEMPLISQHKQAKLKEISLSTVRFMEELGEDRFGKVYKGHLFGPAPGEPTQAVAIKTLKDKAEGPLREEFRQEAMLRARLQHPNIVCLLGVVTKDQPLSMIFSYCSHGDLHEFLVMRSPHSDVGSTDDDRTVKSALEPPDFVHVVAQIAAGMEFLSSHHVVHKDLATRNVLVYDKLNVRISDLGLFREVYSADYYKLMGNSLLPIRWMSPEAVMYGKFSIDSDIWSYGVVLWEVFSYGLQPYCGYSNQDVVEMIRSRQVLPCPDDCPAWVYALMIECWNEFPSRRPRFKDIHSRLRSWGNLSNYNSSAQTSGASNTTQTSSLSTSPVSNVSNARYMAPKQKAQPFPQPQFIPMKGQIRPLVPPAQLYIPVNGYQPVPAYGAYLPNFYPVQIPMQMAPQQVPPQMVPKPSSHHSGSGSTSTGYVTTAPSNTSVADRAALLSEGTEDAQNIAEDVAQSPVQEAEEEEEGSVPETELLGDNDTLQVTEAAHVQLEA

[2] = molecular target: Ror2 (human (endogenous in HEK293T)) (UniProt Q01974); assay: co-IP; Ror2 immunoprecipitated from extracts of control or p120-catenin CRISPR HEK293T cells treated with control or Wnt5a-conditioned medium for 5 min; associated proteins by Western blot
[3] = molecular target: T2, GST–cytoRor2 (aa 563–944) (mouse (from the plasmid name pcDNA-mRor2-HA)) (UniProt Q9Z138); assay: pull-down; Fig. S10; mapping of the CK1ε binding site on Ror2 fragments; legend not shown, source of CK1ε not told
T2 sequence: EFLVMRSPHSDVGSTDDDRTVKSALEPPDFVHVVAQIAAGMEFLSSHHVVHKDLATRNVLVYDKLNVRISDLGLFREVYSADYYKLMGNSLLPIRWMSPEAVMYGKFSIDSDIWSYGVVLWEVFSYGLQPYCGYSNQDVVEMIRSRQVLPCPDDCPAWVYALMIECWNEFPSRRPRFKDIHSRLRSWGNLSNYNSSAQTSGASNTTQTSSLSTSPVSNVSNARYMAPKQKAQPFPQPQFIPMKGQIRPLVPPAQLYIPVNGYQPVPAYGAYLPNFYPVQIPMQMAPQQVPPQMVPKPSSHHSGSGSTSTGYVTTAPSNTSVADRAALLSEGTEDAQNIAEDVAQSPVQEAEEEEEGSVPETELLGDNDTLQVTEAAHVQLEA

[4] = molecular target: T3, GST–p120-catenin lacking the entire regulatory domain (aa 1–350) (UniProt P30999); assay: pull-down; recombinant GST–p120-catenin (wild-type, deletion fragments, or phosphorylated by Src or CK1) as bait with HEK293T cell extracts (NP-40 0.5% lysis buffer), 4 °C 2 h, glutathione-Sepharose, Western blot; only the target purified
T3 sequence: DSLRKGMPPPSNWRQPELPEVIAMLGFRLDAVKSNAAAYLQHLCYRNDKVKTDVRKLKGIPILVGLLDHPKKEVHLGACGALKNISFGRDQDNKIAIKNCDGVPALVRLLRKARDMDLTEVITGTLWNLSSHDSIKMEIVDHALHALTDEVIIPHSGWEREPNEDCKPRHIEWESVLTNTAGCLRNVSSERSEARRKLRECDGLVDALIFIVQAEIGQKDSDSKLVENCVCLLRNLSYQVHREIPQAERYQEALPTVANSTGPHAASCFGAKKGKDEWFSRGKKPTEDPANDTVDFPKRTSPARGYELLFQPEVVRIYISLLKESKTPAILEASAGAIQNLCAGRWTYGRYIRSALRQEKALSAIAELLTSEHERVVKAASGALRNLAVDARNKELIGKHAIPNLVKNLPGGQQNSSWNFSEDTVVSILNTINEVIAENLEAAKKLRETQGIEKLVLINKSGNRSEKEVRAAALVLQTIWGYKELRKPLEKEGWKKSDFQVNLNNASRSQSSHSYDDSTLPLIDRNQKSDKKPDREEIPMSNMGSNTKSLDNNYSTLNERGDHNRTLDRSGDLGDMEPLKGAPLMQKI

[5] = molecular target: T4, GST–p120-catenin lacking the first 102 amino acids (UniProt P30999); assay: as above
T4 sequence: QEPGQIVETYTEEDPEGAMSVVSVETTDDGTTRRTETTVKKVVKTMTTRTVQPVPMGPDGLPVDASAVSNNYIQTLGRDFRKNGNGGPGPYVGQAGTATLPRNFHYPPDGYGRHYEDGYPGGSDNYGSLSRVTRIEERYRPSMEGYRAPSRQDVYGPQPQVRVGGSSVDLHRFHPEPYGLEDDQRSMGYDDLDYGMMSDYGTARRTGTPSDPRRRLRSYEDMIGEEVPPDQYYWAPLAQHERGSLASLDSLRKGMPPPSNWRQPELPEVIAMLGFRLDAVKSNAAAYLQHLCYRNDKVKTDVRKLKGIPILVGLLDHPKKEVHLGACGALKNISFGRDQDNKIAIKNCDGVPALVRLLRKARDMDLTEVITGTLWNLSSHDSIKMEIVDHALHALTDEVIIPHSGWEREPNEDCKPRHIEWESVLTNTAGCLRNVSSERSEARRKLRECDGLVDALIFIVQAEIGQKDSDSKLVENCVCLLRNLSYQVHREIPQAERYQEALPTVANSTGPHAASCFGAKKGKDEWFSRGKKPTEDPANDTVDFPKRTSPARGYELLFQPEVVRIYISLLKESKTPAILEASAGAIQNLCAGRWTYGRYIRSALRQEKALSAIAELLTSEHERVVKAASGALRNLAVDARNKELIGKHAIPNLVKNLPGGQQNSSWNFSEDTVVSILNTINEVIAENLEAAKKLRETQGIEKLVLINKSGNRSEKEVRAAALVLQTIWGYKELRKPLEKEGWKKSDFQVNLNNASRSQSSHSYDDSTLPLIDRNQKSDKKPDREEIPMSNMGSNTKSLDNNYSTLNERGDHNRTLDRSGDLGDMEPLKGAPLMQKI

[6] = molecular target: T5, GST–p120-catenin wild-type (UniProt P30999); assay: as above
T5 sequence: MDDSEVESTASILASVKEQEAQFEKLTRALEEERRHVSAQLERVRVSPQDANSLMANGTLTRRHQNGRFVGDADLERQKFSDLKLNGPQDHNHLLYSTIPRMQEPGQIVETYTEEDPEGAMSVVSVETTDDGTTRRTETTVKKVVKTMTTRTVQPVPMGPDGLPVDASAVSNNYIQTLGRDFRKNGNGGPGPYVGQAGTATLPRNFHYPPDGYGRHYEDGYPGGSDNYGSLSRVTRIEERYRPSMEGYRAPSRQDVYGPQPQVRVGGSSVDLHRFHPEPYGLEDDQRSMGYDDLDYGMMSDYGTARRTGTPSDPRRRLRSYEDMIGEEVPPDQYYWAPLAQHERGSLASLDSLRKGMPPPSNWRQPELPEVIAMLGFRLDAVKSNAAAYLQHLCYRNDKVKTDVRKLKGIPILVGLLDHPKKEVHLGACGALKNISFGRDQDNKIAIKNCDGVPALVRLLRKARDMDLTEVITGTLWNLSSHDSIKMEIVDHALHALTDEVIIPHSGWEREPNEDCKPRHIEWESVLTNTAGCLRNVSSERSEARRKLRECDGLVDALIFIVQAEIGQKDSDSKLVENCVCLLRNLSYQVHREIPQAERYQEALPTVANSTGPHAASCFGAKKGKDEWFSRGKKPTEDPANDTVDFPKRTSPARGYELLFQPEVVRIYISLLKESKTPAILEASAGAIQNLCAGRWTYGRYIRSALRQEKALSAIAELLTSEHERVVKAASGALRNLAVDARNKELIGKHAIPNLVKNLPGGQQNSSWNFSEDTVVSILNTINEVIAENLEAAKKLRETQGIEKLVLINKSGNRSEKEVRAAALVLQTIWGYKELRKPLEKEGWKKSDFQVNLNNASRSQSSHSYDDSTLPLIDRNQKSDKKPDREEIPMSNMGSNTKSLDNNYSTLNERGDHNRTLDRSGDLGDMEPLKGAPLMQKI

[7] = molecular target: T6, p120-catenin phosphorylated by CK1 (UniProt P30999); assay: as above
T6 sequence (chain, phosphorylated in vitro by CK1 (sites not printed)): T5 sequence

[8] = molecular target: T7, p120-catenin phosphorylated by Src (UniProt P30999); assay: as above
T7 sequence (chain, phosphorylated in vitro by Src (sites not printed)): T5 sequence

[9] = molecular target: T8, GST–cytoRor2 (aa 426–563) (mouse (from the plasmid name pcDNA-mRor2-HA)) (UniProt Q9Z138); assay: pull-down; GST–cytoRor2 or its fragments as bait with recombinant p120-catenin, 4 °C 2 h, glutathione-Sepharose, Western blot; both purified
T8 sequence: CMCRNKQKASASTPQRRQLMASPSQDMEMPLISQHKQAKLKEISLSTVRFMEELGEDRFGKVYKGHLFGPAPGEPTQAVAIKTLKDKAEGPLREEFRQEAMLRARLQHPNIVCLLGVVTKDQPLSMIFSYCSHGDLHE

[10] = molecular target: T2, GST–cytoRor2 (aa 563–944) (mouse (from the plasmid name pcDNA-mRor2-HA)); assay: as above
[11] = molecular target: T1, GST–cytoRor2 (cytoplasmic domain of Ror2, amino acids 426–944) (mouse (from the plasmid name pcDNA-mRor2-HA)); assay: as above
[12] = molecular target: T9, GST–cytoRor2 phosphorylated by Src (mouse (from the plasmid name pcDNA-mRor2-HA)) (UniProt Q9Z138); assay: as above
T9 sequence (chain, phosphorylated in vitro by Src (sites not printed)): T1 sequence

CK1ε (from UniProt P49674 1-416) (enzyme)
binding [1]: binds
binding [2]: binds

CK1ε as used in the mapping of Fig. S10 (from UniProt P49674 1-416) (enzyme)
binding [3]: binds

Ror2 (from UniProt Q01974 34-943) (receptor)
binding [4]: no binding
binding [5]: binds
binding [6]: binds
binding [7]: binds
binding [8]: binds

B1: recombinant p120-catenin (protein, UniProt P30999 1-938)
chain: T5 sequence
binding [9]: binds
binding [10]: no binding
binding [11]: binds
binding [12]: binds
